Our source for the cytotoxicity call and growth inhibition call values is the antibiotic and cytotoxicity screens of Wong et al. (2023).

SMILES strings stand for the structures. The list shows a part of the results.

Experiment [1] concerns HSkMC (human skeletal muscle cells). The experiment can be described thus: cytotoxicity call (relative viability < 0.9). The note with it: 10 µM.
Experiment [2] deals with HepG2. The experiment can be described thus: cytotoxicity call (relative viability < 0.9). The note with it: 10 µM.
Experiment [3] concerns S. aureus RN4220. The experiment can be described thus: growth inhibition call (relative growth <= 0.2). The note with it: 50 µM.

As to `O=C(O)COCC(=O)NCc1ccco1`, the cytotoxicity call in experiment [1] and in experiment [2] was “inactive” in each case. Further, the growth inhibition call in experiment [3] is “inactive”.

Consider `CN(C)CC(=O)N1[C@@H]2c3ccc(C4=CCCC4)c(=O)n3C[C@H]1[C@H](CO)[C@H]2C(=O)NCC1CC1`, for which the cytotoxicity call in experiment [1] and in experiment [2] was “inactive” in each case. Further, the growth inhibition call in experiment [3] was “inactive”.

For `COc1ccc(CN(C)C[C@@H]2OCCCC[C@@H](C)Oc3ccc(NC(=O)Nc4ccc(C(F)(F)F)cc4)cc3C(=O)N([C@@H](C)CO)C[C@H]2C)cc1`, the cytotoxicity call in experiment [1] and in experiment [2] was “active” in each case. In addition, the growth inhibition call in experiment [3] is “inactive”.

`CS(=O)(=O)n1cc2c(n1)CN([C@H]1CO[C@H](c3cc(F)ccc3F)[C@@H](N)C1)C2`: the cytotoxicity call in experiment [1] and in experiment [2] was “inactive” each time. Moreover, the growth inhibition call in experiment [3] was “inactive”.

Consider `COc1cccc2c1C(=O)c1c(O)c3c(c(O)c1C2=O)CC(O)(C(=O)CO)CC3OC1CC(N)C(O)C(C)O1.Cl` (stereo not drawn), for which the cytotoxicity call in experiment [1] was “inactive”. Moreover, the cytotoxicity call in experiment [2] was “active”. In experiment [3], the growth inhibition call was “inactive”.

For the molecule `COc1ccc(C#Cc2cnc3c(c2)C(=O)N([C@@H](C)CO)C[C@@H](C)[C@H](CN(C)C(=O)CC2CC2)O3)cc1`, the cytotoxicity call in experiment [1] and in experiment [2] was “inactive” throughout. In experiment [3], the growth inhibition call is “inactive”.

As to `Cl.NCCCC(N)C(=O)O` (stereo not drawn), in experiment [1], the cytotoxicity call is “inactive”. In addition, the cytotoxicity call in experiment [2] is “active”. For the same molecule, in experiment [3], the growth inhibition call was “inactive”.

Take `O=C1NCCN2CCN(C(=O)Cn3cccc3)C[C@@H]12`: the cytotoxicity call in experiment [1] and in experiment [2] was “inactive” in each case. Besides, the growth inhibition call in experiment [3] is “inactive”.

On to `CC(C)CC#Cc1ccc2c(c1)O[C@@H](CN(C)C(=O)Cc1cccnc1)[C@@H](C)CN([C@H](C)CO)S2(=O)=O`, for which the cytotoxicity call in experiment [1] and in experiment [2] was “inactive” in each case. Moreover, the growth inhibition call in experiment [3] was “inactive”.

With `COc1ccc(CN(C)C[C@@H]2OCCCC[C@@H](C)Oc3ccc(NC(=O)c4ccncc4)cc3C(=O)N([C@H](C)CO)C[C@H]2C)cc1`, the cytotoxicity call in experiment [1] and in experiment [2] was “inactive” each time. Also, in experiment [3], the growth inhibition call is “inactive”.

As to `COc1ccc(S(=O)(=O)Nc2ccc3c(c2)CC(=O)N([C@@H](C)CO)C[C@H](C)[C@@H](CN(C)S(C)(=O)=O)O3)cc1`, the cytotoxicity call in experiment [1] and in experiment [2] was “inactive” in each case. In addition, the growth inhibition call in experiment [3] is “inactive”.
